Over roughly 33,000 sequences, “E-score (-0.5 to 0.5)” has its median near -0.036; the highest 2% begin near 0.37. The list shows a part of the results.
Biological target: T1, Yer064c (UniProt P40041)
T1 sequence: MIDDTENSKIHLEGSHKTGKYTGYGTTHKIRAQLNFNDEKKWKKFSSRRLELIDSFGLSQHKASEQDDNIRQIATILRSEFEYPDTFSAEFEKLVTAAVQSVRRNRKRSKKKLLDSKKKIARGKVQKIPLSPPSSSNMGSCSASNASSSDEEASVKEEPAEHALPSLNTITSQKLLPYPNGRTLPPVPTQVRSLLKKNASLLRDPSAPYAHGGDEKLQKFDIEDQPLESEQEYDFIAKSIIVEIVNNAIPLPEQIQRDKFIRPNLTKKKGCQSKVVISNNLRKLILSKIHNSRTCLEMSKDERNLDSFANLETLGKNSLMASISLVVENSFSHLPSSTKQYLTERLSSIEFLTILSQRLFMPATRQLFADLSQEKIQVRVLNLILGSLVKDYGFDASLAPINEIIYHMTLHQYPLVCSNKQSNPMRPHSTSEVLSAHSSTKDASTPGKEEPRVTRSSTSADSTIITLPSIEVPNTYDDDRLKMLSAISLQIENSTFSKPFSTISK
Test: PBM E-score (8-mer binding enrichment) (E-score (-0.5 to 0.5)); higher = stronger / more preferred TF binding; most listed sequences are background and not binding sites
Details: protein concentration: 200 nM; construct: GST-full length
Outline: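 Detection of bound protein used fluorescent anti-GST, with scans normalised by masliner. The proteins were GST-tagged yeast transcription factors applied at about 100-200 nM to universal all-10-mer Agilent arrays made double-stranded by primer extension. Each ungapped eight-base word, pooled with its reverse complement, was scored with an E-score from the Universal PBM Analysis Suite.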

Row | Sequence | PBM E-score
1 | ACCTGAGA | -0.0139
2 | AGCCCGCA | -0.0469
3 | GGACCCAC | -0.07
4 | CACGAGCG | -0.101
5 | GGCACAAA | -0.255
6 | GACAAAGA | 0.0339
7 | CAGTGTAA | 0.0877
8 | CACTCCTC | -0.206
9 | AGCTCCGG | -0.18
10 | CTACGACC | -0.0192
11 | AACCATTA | 0.198
12 | AGGAGCTC | -0.0695
13 | CCGGTCTA | 0.058
14 | CAGGTCTA | 0.00506
15 | GAGGATGA | 0.0709
16 | AGACCATC | -0.124
17 | ACGGAAGA | -0.0128
18 | ATATTATA | -0.00602
19 | ATACACCG | -0.117
20 | AAGCGGCC | -0.245
21 | CGGCCTGA | -0.139
22 | CCGTACCG | -0.08
23 | ATTTAGAA | -0.011
24 | CTGGTCAA | -0.205
25 | CTAGACCA | -0.0688

Row | Sequence | PBM E-score
26 | AAGTCTCA | 0.239
27 | AACGCATC | -0.127
28 | CTAATGAA | 0.184
29 | AAAGATAG | 0.0338
30 | AGTTAAGC | -0.109
31 | ACTAACAC | 0.315
32 | CGCGAAAA | -0.0519
33 | CTTTTGAA | -0.0309
34 | CCTAATCG | 0.0953
35 | CTTGGAGA | -0.00946
36 | ATAATACG | -0.0247
37 | CAGGCCCG | -0.317
38 | CACTCACG | 0.112
39 | ACATACTG | -0.115
40 | AACGGAAA | 0.0241
41 | CGGTGCTC | -0.133
42 | CTTCTCCC | -0.131
43 | AGTCTCGA | 0.24
44 | GTCCAGCA | -0.0814
45 | CTGATACC | -0.106
46 | TCGCGTAA | -0.0334
47 | CGGCGCTC | -0.158
48 | GACTCATA | 0.477
49 | AGAAATCG | -0.117
50 | AGTCCCCG | 0.106

Row | Sequence | PBM E-score
51 | AATTGATC | -0.046
52 | AGTGAGAT | -0.00055
53 | CATAAGGG | -0.267
54 | CCGCTGGC | -0.328
55 | GAAACACC | 0.0146
56 | GCCCACTA | -0.178
57 | AGCCTATA | -0.27
58 | AGGGTCGG | -0.191
59 | CGGGTATA | 0.0321
60 | AGAGCACT | -0.0479
61 | ATGCGTAA | -0.126
62 | TATACCCA | 0.0658
63 | CCCTTGCG | -0.21
64 | AGTGTATC | 0.106
65 | CGCAAGTC | 0.0971
66 | AGAGGCGG | -0.16
67 | CTACCCGA | 0.0299
68 | ATGACCGA | -0.0163
69 | ATTTTCTA | 0.0886
70 | GGTACCAA | -0.271
71 | AAAAGTTC | 0.0665
72 | CGGGCACC | -0.183
73 | AAACTCTG | 0.0203
74 | CCCTAGGC | -0.191
75 | CGTACTAG | 0.0604

Row | Sequence | PBM E-score
76 | GGACCTTA | -0.0995
77 | TAGTGAAA | -0.00449
78 | CACTGTCC | -0.0314
79 | GTACTTTA | 0.0454
80 | CCCAGCCG | -0.105
81 | CATTTGAA | 0.126
82 | CTCTCCGC | -0.0102
83 | AACTGATA | 0.119
84 | CTGCAACC | -0.0964
85 | CGTGCTGC | -0.205
86 | AATAGATG | 0.104
87 | GTTAGTTA | 0.165
88 | ACACTCGA | 0.0239
89 | GCCGAGCC | -0.128
90 | AGGTAGAA | -0.197
91 | AAAAGGGC | -0.0803
92 | CGAGTTGA | 0.143
93 | GCGCATCA | 0.0767
94 | GCACGGAA | -0.0673
95 | GGGACTAA | 0.323
96 | AAAGGTGC | -0.21
97 | AGCTGCTC | -0.138
98 | ATCGTACC | -0.0803
99 | AAGTCCAA | 0.0178
100 | CAGCTTAC | 0.0501

Row | Sequence | PBM E-score
101 | GGTAGGCA | -0.123
102 | CACGCAAA | -0.155
103 | AATTTCCA | 0.011
104 | TACAGGGA | 0.0442
105 | AAGCGACC | -0.161
106 | CGTCGGAC | -0.065
107 | AGAACTGG | -0.0701
108 | GGGGGCTA | -0.277
109 | AACGACCA | 0.0633
110 | AATGGCAT | 0.0278
111 | AATACTGA | -0.0813
112 | ATGCTTCA | -0.153
113 | GGAGGACA | -0.163
114 | GGACCAGA | -0.189
115 | ACATACGG | -0.077
116 | GGTCTAAA | 0.00226
117 | CTCCACCA | -0.0811
118 | TAAGACCA | 0.112
119 | CGAGCTGC | -0.221
120 | ACTTTCTA | -0.00055
121 | GAAACAAC | -0.16
122 | AATGAGCG | -0.252
123 | CGATATCC | -0.0948
124 | ACGGCGTC | -0.3
125 | CGTATAAC | 0.0482

Row | Sequence | PBM E-score
126 | GCGTCCAC | -0.189
127 | AATTGGTG | -0.0299
128 | ATACTGCC | -0.16
129 | GCTTAAAA | -0.0109
130 | CATTTCCA | 0.116
131 | CCACCTTA | -0.125
132 | CAGTGTCC | -0.253
133 | GTCAGGAA | 0.167
134 | GTAAAATA | 0.0278
135 | ACGCTGAT | 0.223
136 | AACCGGCT | -0.258
137 | ATAGCTTG | 0.0471
138 | CTCGCCCC | -0.281
139 | ATAATAAG | 0.00074
140 | TAGTAAGA | 0.122
141 | AGGCTAAC | 0.0621
142 | CCTCACTC | -0.077
143 | CGGCGGTC | -0.249
144 | CAACACCC | 0.0592
145 | GTGTTGTA | 0.0759
146 | CTCCAGAA | -0.118
147 | ACATCTAT | 0.0442
148 | CTCGGGGA | -0.0158
149 | AAGACATA | -0.0777
150 | AACAAGTC | 0.226

Row | Sequence | PBM E-score
151 | AGCACCCC | -0.32
152 | GGACATAA | -0.124
153 | GTGAGTTA | 0.263
154 | AGTGATGA | 0.261
155 | CGCGGGAA | -0.0482
156 | ACCCAGGC | 0.0836
157 | CCGCCGAA | 0.0178
158 | CAACTGAA | 0.0525
159 | ATGGGGCA | -0.27
160 | GGAGATCA | -0.0123
161 | AGTATTAA | 0.164
162 | CTCGCAAG | 0.00665
163 | CACGGGAC | 0.0352
164 | GCCCAAGC | -0.263
165 | AATGCGAC | 0.068
166 | GGTCGCCA | -0.102
167 | GCTTGGAC | -0.0998
168 | AGTAGCGC | -0.0178
169 | CTAAATTA | 0.278
170 | GCAGCCGC | -0.19
171 | AAAACTTG | -0.0825
172 | CGGGCCAC | -0.31

Reference: the supplement of paper PMC3334620
